ChEMBL document CHEMBL4888484, “Replenishing the malaria drug discovery pipeline: Screening and hit evaluation of the MMV Hit Generation Library 1 (HGL1) against asexual blood stage Plasmodium falciparum ,using a nano luciferase reporter read-out” (2022)
Hit rate of the full screen: of about 4,800 compounds, about 420 (8.8%) showed an effect of 50% or more. This is one part of the list.

System: Plasmodium falciparum
Experiment: Confirmatory screen in NF54 nanoGlo assay, in single point, at 2uM, 72h
Assay type: functional, Erythrocyte
Details: timepoint 72 hour

Row | SMILES | % Inhibition
1 | Cn1ncc(NC(=O)Cn2nc(C(F)F)c(Cl)c2C2CC2)c1C(=O)N1CCCCC1 | -1%
2 | CCN1CCN(c2cccc(NC(=O)c3ccc4[nH]c5ccccc5c(=O)c4c3)c2)CC1 | 93%
3 | N#Cc1ccc(NCc2nccc(N)n2)nc1 | 1%
4 | Cc1ccnc(N2CCN(S(=O)(=O)Cc3ccon3)CC2)c1 | 4%
5 | O=C1c2ccccc2C(c2ccc(NC(=O)c3cccc4ccccc34)cc2)(c2ccc(NC(=O)c3cccc4ccccc34)cc2)c2ccccc21 | 83%
6 | COc1ccc(NC(=O)CCC(=O)c2ccc3c(c2)OCCCO3)cc1 | -11%
7 | C[C@@H](CNC(=O)c1ccncc1F)c1nc2ccccc2s1 | -1%
8 | O=S(=O)(Cc1ccccc1)N1CCC(OCCOc2ccc(F)cc2)CC1 | -2%
9 | N#CC(c1nc2ccccc2s1)c1nc2ccccc2s1 | 14%
10 | CCCNC(=O)c1cn2ccnc(-c3ccc(C)cc3)c2n1 | -4%
11 | O=C(Nc1ccc2c(c1)CNCC2)C1CC1c1ccc(F)c(F)c1 (stereo unspecified) | 4%
12 | CC(C)N(CCS(C)(=O)=O)C(=O)NCc1ccco1 | 5%
13 | COCc1cc2nn(CC(=O)Nc3ccc(F)cc3C)c(=O)n2c(-c2ccccc2)n1 | -15%
14 | O=C(NCc1cccc(F)c1)[C@H]1CCCN(c2nc3ccccc3n(Cc3ccccc3)c2=O)C1 | 5%
15 | Cn1nc(C2CC2)nc1COc1cc(C(F)F)nc2ccc(Cl)cc12 | -4%
16 | COc1ccc(-c2noc([C@H](C)NC(=O)N3CCNC(=O)C3)n2)cc1OC | -1%
17 | Cc1nnc(NS(=O)(=O)c2c(C)sc3ccccc23)s1 | 5%
18 | Nc1c(Cl)cc(Cl)c(N)c1Cl | -11%
19 | CCN1c2cc(C(=O)NCc3ccccc3)ccc2C(=O)N2CCCC[C@H]21 | 1%
20 | CC(C)(C)c1cc(N)c2ccccc2n1 | -8%
21 | Cc1cc(C)n(S(=O)(=O)c2ccc3c(c2)OCCO3)n1 | -3%
22 | Cc1ccc(NC(=O)c2ccc3c(-c4ccccc4)onc3c2)cc1C | -17%

Row | SMILES | % Inhibition
23 | Fc1cccc(F)c1-n1c(COc2ccc(Cl)cc2)csc1=S | -7%
24 | CC(CO)(CO)NC(=O)c1ccc(Br)cc1 | 2%
25 | C[C@H](C(=O)NCCc1ccccc1)C1CCOCC1 | -9%
26 | COC(=O)[C@@H]1[C@@H](NC(=O)C2CCCC2)CCN1C(C)=O | -2%
27 | Cc1ccc(Cn2c(=O)c(N3CCC[C@H](C(=O)NCCc4ccco4)C3)nc3ccccc32)cc1 | -2%
28 | O=C(COc1ccccc1)N1CC[C@H](c2nc(C3CCOCC3)no2)C1 | -3%
29 | Cc1ccc(C(=O)Nc2ccc(N3CCN(CCC#N)CC3)cc2C(=O)O)cc1 | -12%
30 | c1cncc(CN2CCN(C3CCCCCC3)CC2)c1 | 3%
31 | NC(=O)C1CCCCCC1NC(=O)c1nccnc1N (stereo unspecified) | -2%
32 | Cn1nc(C(=O)NCc2cccs2)cc1C(=O)NCc1cccs1 | -9%
33 | O=C(Nc1ccn(-c2ccccc2)n1)N1CC2CCC(O)CC2C1 (stereo unspecified) | -13%
34 | CC(C)[C@@H]1CN(C(=O)c2ccncc2)c2ccccc2N1 | -7%
35 | COc1ccc(NC(=O)c2cc3c(C)nn(-c4ccccc4)c3s2)cn1 | 7%
36 | C=CCN(CC=C)S(=O)(=O)c1ccc(S(=O)(=O)NC)cc1 | -8%
37 | c1ccc(C(c2ccccc2)N2CCN(c3nn4cnnc4c4ccccc34)CC2)cc1 | 65%
38 | CCN(CC)S(=O)(=O)c1ccc2c(c1)CCCN2C(=O)c1ccc2ccccc2c1 | 1%
39 | O=C(NCc1ccc(F)c(Cl)c1)c1csc(C(=O)NC2CCCC2)n1 | -4%
40 | C[C@@H](CC#N)NC(=O)Nc1cc(-c2ccccc2)ns1 | 11%
41 | O=C(NCCCn1ncc2c(Cl)cccc21)C1CCC1 | -1%
42 | O=C1OCc2cc(NC(=O)[C@@H]3COc4ccccc4O3)ccc21 | 5%
43 | Cc1ccc(NS(=O)(=O)c2ccc(NC(=O)CN(c3cc(Cl)ccc3C)S(C)(=O)=O)cc2)cc1C | -6%
44 | CN1CCN(C(=O)CNC(=O)c2cccc(Cl)c2)CC1 | -2%

Row | SMILES | % Inhibition
45 | Cc1nn(Cc2nnn(C)n2)c(C)c1Br | -10%
46 | COc1ccc(-c2nccn3cc(C(=O)NCCN(C)C4CCCCC4)nc23)cc1 | 6%
47 | O=C1[C@H]2C(Cc3c[nH]c4ccccc34)N[C@@]3(C(=O)Nc4ccc(F)cc43)[C@H]2C(=O)N1CC1CCCO1 (stereo partly specified) | -14%
48 | CC(C)(C)c1cc(N)nc(C(C)(C)C)n1 | -16%
49 | Cn1cncc1CC(=O)Nc1ccnc(NC(=O)OC(C)(C)C)c1 | 96%
50 | Cn1cnn(CC(=O)N2CCc3ccccc3C2)c1=O | 0%
51 | O[C@H]1Cc2ccccc2[C@H]1Nc1nc(-c2ccccn2)nc2c1CCNC2 | 13%
52 | CC(C)C(NC[C@H]1CCCN1S(C)(=O)=O)c1cc2ccccc2o1 (stereo partly specified) | -7%
53 | O=C(CCC(=O)Nc1cccnc1)NCc1ccc2c(c1)OCO2 | -2%
54 | CS(=O)(=O)CC1(CNC(=O)c2ccc(Br)cc2)CC1 | 6%
55 | C[C@@H](CNc1nc(-c2ccccc2)nc2nc(-c3ccc(Cl)cc3)oc12)N1CCCCC1 | 60%
56 | COc1cc(C(=O)NC2CCCCC2)cc2occc12 | -8%
57 | COc1ccc(NS(=O)(=O)c2ccc(NC(=O)CN(c3ccc(F)cc3)S(C)(=O)=O)cc2)cc1 | 5%
58 | FC(F)(F)C1CCCC(NCc2c[nH]nc2-c2cccnc2)C1 (stereo unspecified) | -2%
59 | Cc1c(C)n(C[C@H](O)Cn2c(C(F)(F)F)nc3ccccc32)c2c(Cl)cccc12 | -6%
60 | COc1ccc(Nc2nc(C(=O)Nc3ncc(C)s3)cs2)cc1OC | 17%
61 | CNC(=O)c1nc(C(=O)NCc2ccco2)cs1 | -13%
62 | CC(C)C(=O)N1CC[C@H](CC(=O)NCc2ccccc2)C1 | -4%
63 | O=C(O)c1cccc2c(-c3cc(-c4ccccc4)n(-c4ccccc4)n3)ccc(C(=O)O)c12 | -4%
64 | COc1cc(CNCc2cccs2)ccc1OCc1ccccc1C | -7%
65 | O=C(N[C@H]1CCOC1=O)OCc1ccccc1 | -7%
66 | CN1CCN(CC2(O)CCN(S(=O)(=O)c3ccc(Cl)cc3)CC2)CC1 | -11%
